# Assay results taken from publication PMC12136788.
# The other results are listed elsewhere or left out.
# T1: UNK ZnF1-6 (called full-length) (human, UniProt Q9C0B0 30-357)
# T1 sequence: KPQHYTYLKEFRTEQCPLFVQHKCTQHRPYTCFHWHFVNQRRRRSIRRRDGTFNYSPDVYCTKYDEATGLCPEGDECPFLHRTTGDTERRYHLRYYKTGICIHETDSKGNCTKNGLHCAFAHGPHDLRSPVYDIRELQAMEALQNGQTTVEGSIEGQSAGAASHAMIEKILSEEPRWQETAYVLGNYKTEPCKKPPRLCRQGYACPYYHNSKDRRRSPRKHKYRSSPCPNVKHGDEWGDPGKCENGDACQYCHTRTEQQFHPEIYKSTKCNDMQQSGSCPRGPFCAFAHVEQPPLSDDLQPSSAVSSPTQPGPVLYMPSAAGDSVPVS
# B1: chr9:16436428:16436529:-|CDS|ENSG00000173068|msi1|total|mutant (ssRNA)
# RNA: GGGAGUUCUACAGUCCGACGAUCCUCCCCCGCCAGCCCGUAUUUUCUGGGCUAAAGACUGUACAACCAGUUCCUCCAUUUUACCGAAGUUUACUCACUCCAGGGGAAAUGGUGAGUCCUCCAACCUCCCUCCCAACCAGUCCCCAACAGAGGAUUGAGCAUCA
# B2: chr1:52238154:52238269:+|CDS|ENSG00000157077|unk|FALSE|unique (ssRNA)
# RNA: GGGAGUUCUACAGUCCGACGAUCUCUGAUAGUCUAGCCAGUGUCUGUUCCCCUUCACAAUUAAAGGAUGACGGAAGUAUAGGUAGAGACCCCUCCAUGUCUGCGAUUACAAGUUUAACGGUUGAUUCAGUAAUCUCAUCCCAGCAACAGAGGAUUGAGCAUCA
# B3: chr10:78035461:78035635:+|CDS|ENSG00000138326|unk|FALSE|unique (ssRNA)
# RNA: GGGAGUUCUACAGUCCGACGAUCCAUUGAUGUCCUUCACCCCGGGAAGGCGACAGUGCCUAAGACAGAAAUUCGGGAAAAACUAGCCAAAAUGUACAAGACCACACCGGAUGUCAUCUUUGUAUUUGGAUUCAGAACUCAUUUCAACAGAGGAUUGAGCAUCA
# B4: chr1:205810550:205810651:-|5pUTR|ENSG00000133065|unk|FALSE|bound_elsewhere (ssRNA)
# RNA: GGGAGUUCUACAGUCCGACGAUCUUGCGGCUUCAGUGCUUGAUGGGGCUGCCUGUUGGUGGAUCAGUUUUUGCAGUGCCUGGUAGGAGUGGAGAGCCGUGGGAAGAGGUCCUGCGGCGCCCAAGCCUGGGUUCACCCCAAGACCAACAGAGGAUUGAGCAUCA
# B5: chr7:95294748:95294849:+|3pUTR|ENSG00000158528|msi1|FALSE|bound_elsewhere (ssRNA)
# RNA: GGGAGUUCUACAGUCCGACGAUCGAGAAAGCCGACAGAAUCAGCUUCUCCUGGAAAGUGAAAGCAUCAAGUUCUAUUUAUGGUAGACAGAGGGUCCUUAUUUGCUUGUCCGUGGUGUCUAUGUGGGCCUAUUGAGGGAAUGGUCAACAGAGGAUUGAGCAUCA
# B6: ENSG00000070961:be:win_5601|3pUTR|ENSG00000070961|bound_else_gene|NA|bound_elsewhere_windowed (ssRNA)
# RNA: GGGAGUUCUACAGUCCGACGAUCGAGGUAGCAUGAUAUGCUGGAAAGCAUAUUAGACUAGGAGUCAAGACCUGGUUUCUAGUCUUGGUUUUGCCAUUAAUGUGCUGCAUGAUCUUGGGAAAAUCAUUUACCCUAAAUAAGGGUCAACAGAGGAUUGAGCAUCA
# B7: chr10:86890108:86890218:+|CDS|ENSG00000107779|unk|total|mutant (ssRNA)
# RNA: GGGAGUUCUACAGUCCGACGAUCUCAUGGCACUGGGAUGAAAUCAGACUCCGACCAGAAAAAGUCAGAAAAUGGAGUAACCUCCGCACCAGAGGAUACCUUGCCUUUUUUAAAGUGCUAUUGCUCAGGGCACUGUCCAGAUGACAACAGAGGAUUGAGCAUCA
# B8: chr20:63196482:63196583:-|3pUTR|ENSG00000149658|msi1|total|mutant (ssRNA)
# RNA: GGGAGUUCUACAGUCCGACGAUCUGAUUUUUGCCCAGAUGGAUCUGCAUUUAUUUGUACUUUUUCUAUGUAUUAUAAUCCUGCCGAAGUCACUAAUAAAGGAGUAUUUUUUUUGUCAGCUUAUCAAUCAGACUGAUCUAAUGUCAACAGAGGAUUGAGCAUCA
# B9: chr19:41259979:41260080:+|3pUTR|ENSG00000167601|msi1|total|mutant (ssRNA)
# RNA: GGGAGUUCUACAGUCCGACGAUCCCUGUCUUCCUACCUAUCCCACCUCCAUCCCAGACAGGUCCCUCCCCUUCUCUGUGCAGCCGCAUCACCUUGAAAGCAGCCGCAUCACCAUCUGUAAAAGGAAGGGGUUGGAUUGCAAUACAACAGAGGAUUGAGCAUCA
# B10: chr5:150649000:150649101:+|CDS|ENSG00000171992|msi1|total|mutant (ssRNA)
# RNA: GGGAGUUCUACAGUCCGACGAUCCAGGCCUUUUGGGAUCCAGGCGCCAGGGGGCACCAGCCAGAUGGAGAGGAGCCCCAUGCCCGAGAGACGACAUUUUGGGGAGAAGGCCCCGGCUCCCCAGCCCCCCAGUUUGCCAGACAGCAACAGAGGAUUGAGCAUCA
# B11: chr5:148442723:148442824:+|3pUTR|ENSG00000145868|unk|FALSE|unique (ssRNA)
# RNA: GGGAGUUCUACAGUCCGACGAUCUUAUGAGCUUAAAAAAAAGUGAGUUUGAGAGGGAAAUGGAAAAGUUUCCAGAGUAUUUCUAGUAAUUUAUUUCCACAUUGAAUUGUGUAUAUGCUUUAUCUUGAAUAUAAAAUAAAAGUUCAACAGAGGAUUGAGCAUCA
# B12: chr14:94062441:94062542:-|CDS|ENSG00000089737|msi1|total|mutant (ssRNA)
# RNA: GGGAGUUCUACAGUCCGACGAUCCCUCCAAGUAACACCGAAGCACCACCUGGAGAGACCAGAACUGAGGCCGGAGCUGAGACCCGAUCACCAGGCAAGGCUGAAGCUGAGUCUGAUGCAUUGCCUGACGAUACUGUAAUUGAGCAACAGAGGAUUGAGCAUCA
# B13: chr12:130875966:130876013:+|3pUTR|ENSG00000132341|msi1_unk|total|mutant (ssRNA)
# RNA: GGGAGUUCUACAGUCCGACGAUCGAUGAGGAUGAUGACCUGUGAGAAUGAAGCUGGAGCCCAGCGUCAGAAGUCCCGUUUUACCGGCAGCUGUCCUGUGAUGUCAGCGGUGCAGCGUGUGUGCCACCUCAUUAUUAUCCCGCUCAACAGAGGAUUGAGCAUCA
# B14: chr2:42328916:42329027:+|CDS|ENSG00000143924|unk|FALSE|unique (ssRNA)
# RNA: GGGAGUUCUACAGUCCGACGAUCAGAAGGAUCUGAUGGGACAGAUAUCAAUGCACUGGUGCGAUCCCACAAUAGAAAGGUGAUAGCUGUUGCCGAUGACUUUUGUAAAGUCCAUCUGUUUCAGUAUCCCUGCUCCAAAGCAAACAACAGAGGAUUGAGCAUCA
# Target: T1, UNK ZnF1-6 (called full-length)
# Assay: nsRBNS (natural sequence RNA bind-n-seq); RBNS binding buffer (assumed for nsRBNS): 25 mM Tris pH 7.5, 150 mM KCl, 3 mM MgCl2, 0.01% Triton X-100, 500 ug/ml BSA, 20 U/ml SUPERase-In, 4 C; UNK is unkempt and MSI1 is Musashi-1; names of the RNAs are library labels; protein concentration not given here; high values mean tight binding
row,Binder,binding signal [enrichment R]
1,B1,0.939
2,B2,0.624
3,B3,0.599
4,B4,0.767
5,B5,0.643
6,B6,0.286
7,B7,0.501
8,B8,0.665
9,B9,0.682
10,B10,0.743
11,B11,1.07
12,B12,0.618
13,B13,0.733
14,B14,0.424
